In PubChem BioAssay (NCI):
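How tested: cells in 96-well plates exposed to compound for 48 hours at five concentrations. GI50 = concentration required for 50% inhibition of growth. TGI denotes the concentration required for complete inhibition of growth.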

test system: NCI-H322M lung; experiment: growth of human tumour cells (NCI), 48 h

Row | SMILES | GI50 | TGI
1 | NC(=O)c1cc(-c2ccc3ncnc(N4CCc5cc(F)c(Cl)cc54)c3c2)cnc1N | 1.02 µM | 8.69 µM
2 | Oc1ccc(CSc2nnc(-c3ccc(Oc4ccccc4)cc3)n2-c2ccccc2)c2cccnc12 | 0.318 µM | > 100 µM
3 | CN(C)CCCNc1c2ccccc2nc2c1oc1ccc(Cl)cc12 | 3.18 µM | 14.9 µM
